From the supplement of paper PMC10338343
± gives the standard deviation. Over roughly 6,600 sequences, “pre-steady-state target cleavage rate” has its median near 0.07; the highest 2% begin near 0.72. The entries are a selection whose mix differs from that of the whole data set.

Tested on: MIWI (PIWIL1) piRISC loaded with Kctd7 piRNA (30 nt)
Experiment: pre-steady-state target cleavage rate (min^-1); MIWI and MILI are mouse PIWI proteins and EfPiwi is from a freshwater sponge; tags in brackets are library labels; higher = faster piRNA-guided slicing of the target
Settings: guide: Kctd7 piRNA 5'p-UGUUAAUCUCUCAGAGAAGGUGACAGUGAU; auxiliary factor: 500 nM mouse GTSF1
Description: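 Cleave-'n-Seq: a library of target RNAs (target site embedded in constant flanks, ACAGCATTCCGCGTTAGTGATATCCG... 5' flank; DNA-blocked outside the site) at 0.1 nM was incubated with 1 nM active mouse MILI or MIWI piRISC (synthetic 5'-monophosphorylated piRNA guide) with or without 500 nM mouse GTSF1 at 33 °C for 1 min to 16 h. Uncleaved targets were sequenced and normalised to non-target controls, and the pooled three trials were fitted to a burst-and-steady-state model to give the pre-steady-state cleavage rate (min^-1; k3 is constrained to at most 1e-4). Sequence is the target site only; target names encode pairing extent (gX:gY) and contiguous / 1-mismatch / 2-mismatch / bulge geometry. Fits with R² ≤ 0 are excluded.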

Sequence	pre-steady-state target cleavage rate
UACACUGUCACCUUCUCAGAGAGAUUUACA	0.162 ± 0.026
UAGACUGUCACCUUCUCUGGAGAUUAACA	0.191 ± 0.015
UAGUCUGUCACCUUCUCUUAGAGAUUAACA	0.319 ± 0.02
UAGUGACUCACCUUCUCUGAGAGAUUAAAA	0.122 ± 0.015
UAGUCUGUCGACCUUCUCUGAGAGAUUAACA	0.195 ± 0.035
UAGUGACAGACCUUCUGUGAGACAUUAACA	0.0295 ± 0.0071
UAGUGACUCACCUUCUCUGAGAGACUAACA	0.21 ± 0.039
UAGUCUGUCACCUACUGUGAGAGAUUAACA	0.198 ± 0.014
UAGUGACUCACGUUCUCUGAGUGAUUAACA	0.00871 ± 0.003
UAGUCUGUCACCUUCUCUAAGAGAUUAACA	0.455 ± 0.018
UAGUCUGUCACGUUCUCUGAGAGAUAAACA	0.262 ± 0.027
UUCACUGUCACCUUCUCGAGAGAUUAACA	0.0841 ± 0.013
UAGUGACAGUCCUUCUGUGAGAGAUUUACA	0.00915 ± 0.0023
UAGUGACAGUCCUUCUCUGAGACAAUAACA	< 0.0001
AACACUGUCACCUUGUCUGAGAGAUUAACA	0.611 ± 0.088
UACACUGUCACCUUCUCUGAGGAGAUUAACA	0.00908 ± 0.0056
UAGUGACACACCUUCACUGAGAGAUUAACA	0.372 ± 0.036
UAGUCUGUCACCUUCUCUGAGAAGAUUAACA	0.0551 ± 0.0094
UAGUGAGUCUCCUUCUGUGAGAGAUUAACA	0.261 ± 0.024
UUCACUGACACCUUCUCUGAGAGAUAAACA	0.214 ± 0.034
AUCACUGUGACCUUCUCUGACAGAUUAACA	0.328 ± 0.027
UACACUGUCACCAUCUCUGAGAGAUUAUGA	0.0408 ± 0.015
UAGACUGUCACCUUCUCUGGGAGAUUAACA	0.515 ± 0.022
AUCACUGUCAACCUUCUCUGAGAGAUUAACA	0.269 ± 0.021

Sequence	pre-steady-state target cleavage rate
UAGUGACAGUGGAUCUCUGAGAGAUUAACC [g2:g17:cont:t1C]	< 0.0001
UAGUGAGUCUGCUUCUCUGAGAGAUUAACA	0.185 ± 0.015
UAGUGACACACCUUCUCUCAGAGAUAAACA	0.0134 ± 0.0058
UAGACUGUCACCUUCUCAGAGAGAUUAUGA	0.0418 ± 0.01
UAGUGACAGACCUUCUCCGAGAGAUUAACA	0.0535 ± 0.013
UAGUCUGACACGUUCUCUGAGAGAUUAACA	0.512 ± 0.046
UAGUGACUCACCUUCUCUGAGAGAUUCAACA	0.283 ± 0.047
UAGUGAGUCACCUUCUCUGAGAGUAUAACA	0.229 ± 0.046
UAGUGACACACCUACUCUGAGAGAUUAUCA	0.0862 ± 0.015
UAGUCUGUCACGAACUCUGAGAGAUUAACA	0.0819 ± 0.01
UAGACUGACACGUUCUCUGAGAGAUUAACA	0.601 ± 0.037
UAGUGUGUCACCUUCACUGAGAGUUUAACA	0.124 ± 0.021
UAGUGACUCACCUUCUCUGAGAGUUUUACA	0.0914 ± 0.019
UUCACUGAGACCUUCUCUGAGAGAUAUUGA	0.0142 ± 0.0048
AUCACUCUCACCUUCUCUGAGAGAUAAACA	0.235 ± 0.04
UAGUGACAGACGUUCUCUGAGAGAUUAAGA	0.00397 ± 0.0038
UAGUGACUCACCUUCUCUGAGAGUAUUAACA	0.22 ± 0.028
UAGUGUGUCACCUUCUCUGAGAGAUAUAGA	0.0321 ± 0.013
UAGUGUGUGACCUACUCUGAGAGAUUAACA	0.468 ± 0.033
UAGACUGUCACCUUCACUGAGAGAUUUUGA	0.108 ± 0.026
UAGUGACUCACCUUCUCUGAGACUAUAUGA	< 0.0001
UUCACUGUCACCAAGUCUGAGAGAUUAAGA	0.0801 ± 0.021
UACAGUGUCACCUUCUCUGAGACAUUAACA	0.257 ± 0.021
UAGUGACACACCUUCUCGAGAGAUUAACA	0.0137 ± 0.006

Sequence	pre-steady-state target cleavage rate
UAGUGUGUCACCUUCUCUGAUGAGAUUAACA	0.0106 ± 0.0054
UAGUGACUCACCUUCUGUGAGAGUUUAACA	0.0685 ± 0.0097
UAGUGAGACACCUUCUGUGAGAGAUUAACA	0.43 ± 0.03
UAGUGAGUAACCUUCUCUGAGAGAUUAACA	0.478 ± 0.034
UAGACUCUCACCUUCUCUGAGUGAUUAACA	0.0238 ± 0.0035
UAGUGAGUCACCUUGUCUGAGAGAAUAACA	0.00587 ± 0.0042
UAGUGACAGACCUAUCUCUGAGAGAUUAACA	0.0206 ± 0.0034
UAGUCUGUCACCAUCUCUGAGAGUUUAACA	0.223 ± 0.033
UUCACUGUCACCUUCUGAGAGAGAUUAUGA	0.0157 ± 0.0081
UAGUGUGUCACGUUCUCUGAGAGAAUAACA	0.19 ± 0.037
UUCACAGUCACCUUCUCUGAGAGAUUAUGA	0.103 ± 0.028
UAGUGACUCACCUUCUCUGAGAGAUUUAACA	0.224 ± 0.027
UAGUGACACUCCUUCUCUGAGUGAUUAACA	0.017 ± 0.004
AUCACUGACACCUUCUCUGAGAGAUUUACA	0.356 ± 0.06
UAGUGUGUCACCUUCUCUGAGAGAUUCAACA	0.288 ± 0.041
UACACUUCACCUUCUCUGAGAGAUUAACA	0.517 ± 0.031
UAGUGACACACCUUCUCUGAGUGAUUAUCA	0.00555 ± 0.0028
UAGUCUGUCACCUUCUGUGUGAGAUUAACA	0.091 ± 0.0073
UAGUCUGUGAGCUUCUCUGAGAGAUUAACA	0.294 ± 0.016
UACACUGUCACCUUGUCUGAGAGAUUUUGA	1.02 ± 0.24
UAGUCUGUCACCUUCUCUGAGAGCAUUAACA	0.394 ± 0.036
UAGUGAGUCACCUUCUCUGAGUCUUUAAGA	0.00546 ± 0.0039
UAGUCUGACAGCUUCUCUGAGAGAUUAACA	0.303 ± 0.029
UUCACUGUCACCUUCUCAGAGAGAUUAUGA	0.0684 ± 0.023
